Assay results: publication PMC6959191 (Haematologica, 2019)

Molecular target: NF-κB-inducing kinase (human (endogenous in OPM-2 and …, UniProt Q99558 1-947))
Assay: co-IP

Sequence of UniProt Q99558 (Q99558 whole entry): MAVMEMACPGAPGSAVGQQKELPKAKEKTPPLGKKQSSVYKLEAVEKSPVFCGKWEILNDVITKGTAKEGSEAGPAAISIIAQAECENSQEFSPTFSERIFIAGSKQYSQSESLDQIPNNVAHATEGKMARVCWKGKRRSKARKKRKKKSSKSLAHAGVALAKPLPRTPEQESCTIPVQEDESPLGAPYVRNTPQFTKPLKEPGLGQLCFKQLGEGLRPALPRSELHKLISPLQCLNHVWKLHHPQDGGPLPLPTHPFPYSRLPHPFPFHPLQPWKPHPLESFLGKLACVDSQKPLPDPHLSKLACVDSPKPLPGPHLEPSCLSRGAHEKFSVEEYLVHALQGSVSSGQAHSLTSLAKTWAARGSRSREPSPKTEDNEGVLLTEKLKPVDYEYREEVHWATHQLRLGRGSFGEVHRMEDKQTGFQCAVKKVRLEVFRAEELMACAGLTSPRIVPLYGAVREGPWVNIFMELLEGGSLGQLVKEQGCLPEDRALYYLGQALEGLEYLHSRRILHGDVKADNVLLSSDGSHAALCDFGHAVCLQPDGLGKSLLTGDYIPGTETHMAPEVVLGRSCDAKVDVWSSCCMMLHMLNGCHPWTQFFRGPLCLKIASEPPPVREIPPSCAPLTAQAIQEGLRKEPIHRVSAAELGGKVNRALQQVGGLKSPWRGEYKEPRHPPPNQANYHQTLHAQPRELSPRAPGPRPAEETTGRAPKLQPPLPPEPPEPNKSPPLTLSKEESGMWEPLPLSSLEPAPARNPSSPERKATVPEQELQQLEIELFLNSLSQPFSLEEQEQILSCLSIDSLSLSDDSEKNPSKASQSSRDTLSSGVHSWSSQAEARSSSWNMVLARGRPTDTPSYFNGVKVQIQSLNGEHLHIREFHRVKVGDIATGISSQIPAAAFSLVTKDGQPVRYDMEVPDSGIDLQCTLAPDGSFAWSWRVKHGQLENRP

- fold increase of the association against untreated control cells: ≥ 3 fold
B1: c-Abl tyrosine kinase (natural protein)
chain: MLEICLKLVGCKSKKGLSSSSSCYLEEALQRPVASDFEPQGLSEAARWNSKENLLAGPSE[about 60 residues left out here]LEKHSWYHGPVSRNAAEYLLSSGINGSFLVRESESSPGQRSISLRYEGRVYHYRINTASDGKLYVSSESRFNTLAELVHHHSTVADGLITTLHYPAPKRNKPTVYGVSPNYDKWEMERTDITMKHKLGGGQYGEVYEGVWKKYSLTVAVKTLKEDTMEVEEFLKEAAVMKEIKHPNLVQLLGVCTREPPFYIITEFMTYGNLLDYLRECNRQEVNAVVLLYMATQISSAMEYLEKKNFIHRDLAARNCLVGENHLVKVADFGLSRLMTGDTYTAHAGAKFPIKWTAPESLAYNKFSIKSDVWAFGVLLWEIATYGMSPYPGIDLSQVYELLEKDYRMERPEGCPEKVYELMRACWQWNPSDRPSFAEIHQAFETMFQESSISDEVEKELGKQGVRGAVSTLLQAPELPTKTRTSRRAAEHRDTTDVPEMPHSKGQGESDPLDHEPAVSPLLPRKERGPPEGGLNEDERLLPKDKKTNLFSALIKKKKKTAPTPPKRSSSFREMDGQPERRGAGEEEGRDISNGALAFTPLDTADPAKSPKPSNGAGVPNGALRESGGSGFRSPHLWKKSSTLTSSRLATGEEEGGGSSSKRFLRSCSASCVPHGAKDTEWRSVTLPRDLQSTGRQFDSSTFGGHKSEKPALPRKRAGENRSDQVTRGTVTPPPRLVKKNEEAADEVFKDIMESSPGSSPPNLTPKPLRRQVTVAPASGLPHKEEAGKGSALGTPAAAEPVTPTSKAGSGAPGGTSKGPAEESRVRRHKHSSESPGRDKGKLSRLKPAPPPPPAASAGKAGGKPSQSPSQEAAGEAVLGAKTKATSLVDAVNSDAAKPSQPGEGLKKPVLPATPKPQSAKPSGTPISPAPVPSTLPSASSALAGDQPSSTAFIPLISTRVSLRKTRQPPERIASGAITKGVVLDSTEALCLAISRNSEQMASHSAVLEAGKNLYTFCVSYVDSIQQMRNKFAFREAINKLENNLRELQICPATAGSGPAATQDFSKLLSSVKEISDIVQR
